# PubChem BioAssay AID485344 (National Center for Advancing Translational Sciences (NCATS), 2010)
# Among all 340,000 compounds or so, about 6,900 (2%) were called active. Cut-off read from the data, not from the text of the source: active = inhibition above about 30%; inactive = below that, where a call was filed. The list shows a part of the results, in another mix than the full data. The source gives no active or inactive call for entries shown without one.
# Molecular target: D(2) dopamine receptor (Homo sapiens) (UniProt P14416)
# Assay: HTS Assay for Allosteric Antagonists of the Human D2 Dopamine Receptor: Primary Screen for Antagonists; note: 0% is about no effect
# Details: HEK293 TREx D2 cells, calcium flux, dopamine EC80; at 10 µM; stronger effect = higher value
# How it was run: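 HEK293 T-REx D2 cells, tet-induced, calcium dye no-wash. Cpd pintool add, 180 s kinetic, then EC80 DA, 180 s kinetic. Ca flux read.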
# Sequence of UniProt P14416 (P14416 whole entry, looked up): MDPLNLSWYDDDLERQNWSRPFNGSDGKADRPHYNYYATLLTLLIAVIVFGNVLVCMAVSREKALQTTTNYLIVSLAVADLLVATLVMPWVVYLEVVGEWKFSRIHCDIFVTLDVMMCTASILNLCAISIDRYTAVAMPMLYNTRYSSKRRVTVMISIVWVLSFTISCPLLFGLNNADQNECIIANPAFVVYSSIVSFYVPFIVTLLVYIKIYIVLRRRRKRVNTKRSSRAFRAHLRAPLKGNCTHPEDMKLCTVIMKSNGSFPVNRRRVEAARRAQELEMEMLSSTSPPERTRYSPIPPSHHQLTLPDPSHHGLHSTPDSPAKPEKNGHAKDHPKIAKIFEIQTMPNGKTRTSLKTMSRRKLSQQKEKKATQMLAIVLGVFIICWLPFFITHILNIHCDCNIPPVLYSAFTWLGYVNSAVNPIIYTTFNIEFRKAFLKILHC
row,Compound,inhibition
1,COc1ccccc1NC(=O)c1ccc(COc2ccc(C)c(C)c2)o1,14.5%
2,Cc1cccc(N2CCN(S(=O)(=O)c3c(C)nc4scc(C)n4c3=O)CC2)c1C,6.5%
3,CCn1cc2nc(SCc3cc(C)ccc3C)n(CCc3ccccc3)c(=O)c2n1,-4.17%
4,CCCCn1c(=O)c2oc3ccccc3c2n(CC(=O)Nc2ccc(CC)cc2)c1=O,3.71%
5,CCCCn1c(=N)n(CCCOc2ccc(F)cc2)c2ccccc21,-1.51%
6,CCS(=O)(=O)Nc1ccc(-c2cn3ccsc3n2)cc1,-4.42%
7,COc1ccc(-c2nc3sc(CCNC(=O)c4ccco4)c(C)n3n2)cc1,2.19%
8,Cn1cc(CN(C(=O)Nc2ccccc2)C2CCCCC2)c2ccccc21,14.2%
9,COc1cc2c(cc1OC)CN(C(=O)Nc1ccccc1)CC2,-10.9%
10,CCN1CCN(c2ccc([N+](=O)[O-])c(Sc3nc4ccccc4[nH]3)c2)CC1,active: 86.8%
11,CN(C)c1ccc(CNS(=O)(=O)c2ccc(-c3cc(C(F)(F)F)on3)s2)cc1,4.84%
12,CCc1ccc(-n2c(=O)c3c4c(sc3n(Cc3ccccc3C#N)c2=O)CCC4)cc1,-11.4%
13,COc1ccc(S(=O)(=O)NCCc2nnc3ccc(SCC(=O)Nc4ccccc4C)nn23)cc1,-12.5%
14,COCCn1nnnc1C(c1ccc(O)c(OC)c1)N1CCc2ccccc2C1 (configuration not stated),active: 43.6%
15,COC(=O)c1c(C)oc2ccc(N(C(=O)c3ccncc3)S(=O)(=O)c3ccc(OC)cc3)cc12,-23.9%
16,O=C(Nc1cccc(C(F)(F)F)c1)c1ccc2c(c1)nnn2C1CCCC1,8.43%
17,CC(C)n1c(O)c(N=NC(=O)CNC(=O)c2cccnc2)c2ccccc21,active: 40.9%
18,CCCCc1ccc(N/C(N)=N/c2nc(C)cc(C)n2)cc1,active: 43.3%
19,COc1ccccc1C1CC(=O)NC(C)=C1C(=O)OC1CCCCCC1 (configuration not stated),20.8%
20,COc1ccc(Nc2ncc3c(n2)CCN(Cc2ccccc2C)C3)c(OC)c1,6.31%
21,O=C(Cn1c(=O)c2cccn2c2cccnc21)NCCCN1CCN(c2ccc(F)cc2)CC1,active: 54%

row,Compound,inhibition
1,COc1cc(/C=N/NC(=O)CC2(C)OCCCO2)ccc1OCc1ccc(Cl)cc1Cl,active: 31%
2,COc1cc(Cl)c(C)cc1Nc1nc2ccccc2c2nnc(C)n12,1.51%
3,O=C(NCc1cccnc1)c1nn(-c2ccc(Cl)cc2)nc1CO,-4.42%
4,COc1ccc(C2CC(=O)N3CN(C4CCCCC4)CSC3=C2C#N)c(OC)c1 (configuration not stated),-12.4%
5,CCC(Oc1ccccc1-c1nnc(-c2ccccc2)o1)C(=O)Nc1ccc(C(C)=O)cc1 (configuration not stated),2.2%
6,COC(=O)c1ccc(NC(=O)CSc2ccc(-c3sc(-c4ccccc4)nc3C)nn2)cc1,-8.35%
7,CCc1ccc(-n2c(=O)c3cccnc3n2CC(=O)NCc2ccccc2)cc1,-18.7%
8,COC(=O)C(C)Sc1ccc2nnc(CCNS(=O)(=O)c3ccc(C)cc3)n2n1 (configuration not stated),13.3%
9,Cc1ccc(C)c(NC(=O)n2ncc3cc(Cl)ccc32)c1,18.6%
10,COCCCNC(=O)Cn1cnc2sc(C)c(S(=O)(=O)N3CCC(C)CC3)c2c1=O,4.42%
11,Cc1ncc(CO)c2c1Oc1nc(-c3ccccc3Cl)nc(SCc3ccccc3F)c1C2,0.173%
12,COc1ccc(CC(=O)Nc2ccccc2C(=O)N2CCOCC2)cc1,active: 43.5%
13,COc1cccc(OC)c1C(=O)NC(=O)Nc1c(C)cccc1C,active: 32.1%
14,CC(C)NC(=O)c1ccc(Cn2c(SCC(N)=O)nc3ccccc3c2=O)cc1,12.5%
15,CCOc1ccc(C2CC(=O)Nc3nc(SCc4ccccc4C)[nH]c(=O)c32)cc1OC (configuration not stated),-9.31%
16,Cc1ccc(CCNC(=O)c2ccc3nc(N4CCC(C)CC4)sc3c2)cc1,4.01%
17,O=c1n(Cc2ccccc2Cl)c2ccccc2c2nc(-c3ccccc3)nn12,6.93%
18,Cc1nn2c(=O)cc(COC(=O)c3ccc(NC(=O)COc4ccc(C)c(C)c4)cc3)nc2s1,-9.87%
19,O=C(CCC1CCCC1)N1CCC(N2CCN(c3ccccc3)CC2)CC1,active: 77.2%
20,CCCCNC(=O)CCCCCn1c(=O)[nH]c2ccccc2c1=O,-19%
21,CCc1ccc(NC(=O)CN2C(=O)c3cccc4cccc2c34)cc1,-7.36%

row,Compound,inhibition
1,O=C(CCN1CCN(c2ccccc2F)CC1)c1ccc(Br)cc1,active: 34.1%
2,Cc1ccc(S(=O)(=O)c2nnn3c2nc(NCc2ccc4c(c2)OCO4)c2sccc23)cc1C,2.23%
3,COc1ccc(Br)cc1CNC(=O)c1cnc2sc(N3CCC(C)CC3)nn2c1=O,-6.15%
4,Cc1nc2ccccn2c(=O)c1NC(=O)c1ccc(F)c(F)c1,-3.07%
5,Cc1cccc(NC(=O)C2CCCN2S(=O)(=O)c2ccc3nc(-c4ccccc4)[nH]c3c2)c1 (configuration not stated),27.4%
6,COc1cc(Cl)c(NC(=O)c2cc3ccccn3n2)c(OC)c1,-4.66%
7,Cc1ccc2c(c1)c1c(c(=O)n(-c3ccccc3)c(=O)n1CC(=O)NCC1CCCO1)n2C (configuration not stated),6.02%
8,CCNC(=O)C1CCN(S(=O)(=O)c2ccc3c(c2)CCCN3C(C)=O)CC1,-3.54%
9,CCOc1cc(C(=O)Nc2ccc(-c3cn4cccnc4n3)cc2)cc(OCC)c1OCC,-16%
10,CCCN(CCC)c1ccc(C2N=C(N)Nc3nc4ccccc4n32)cc1 (configuration not stated),-0.245%
11,O=C(/C=C/c1cccc([N+](=O)[O-])c1)OC1CCCCC1=O (configuration not stated),active: 31.1%
12,O=C(NCc1ccccc1)c1ccc(NC(=O)N2CC3CCCN3c3ccccc32)cc1 (configuration not stated),-1.85%
13,Cn1c(=O)oc2cc(S(=O)(=O)CCC(=O)N3CCN(c4cccc(Cl)c4)CC3)ccc21,3.88%
14,CC(=O)c1ccc(NC(=O)c2ccc3c(c2)N(Cc2cccc(Cl)c2)C(=O)c2ccccc2S3=O)cc1 (configuration not stated),-24.3%
15,Cc1ccccc1-c1nc(CN2CCC(C(=O)NCc3ccc(F)cc3)CC2)c(C)o1,5.32%
16,CCOC(=O)c1c(C)n(-c2ccccc2)c2ccc(OC(=O)COc3ccc(Cl)cc3)cc12,7.03%
17,CC(=O)N1CCOc2ccc(S(=O)(=O)N3CCC(C(=O)Nc4cc(C)cc(C)c4)CC3)cc21,active: 52%
18,Cc1cc(Nc2ccccc2C)n2nc(Cc3ccc(Cl)cc3)nc2n1,-0.983%
19,Cc1ccn2c(Nc3ccc4c(c3)OCCO4)c(-c3ccc(C)o3)nc2c1,-7.82%
20,O=[N+]([O-])c1ccccc1NC1CCN(Cc2ccccc2)CC1,active: 39.2%
